Measurements from the supplement of paper PMC12217912.
This is one part of the list. The full chains were built here from the parent and the listed change. Values near 0.05 are background.

B1: TEV protease; numbered along this chain (parent)
chain: MGESLFKGPRDYNPISSSICHLTNESDGHTTSLYGIGFGPFIITNKHLFRRNNGTLVVQSLHGVFKVKDTTTLQQHLVDGRDMIIIRMPKDFPPFPQKLKFREPQREERICLVTTNFQTKSMSSMVSDTSCTFPSGDGIFWKHWIQTKDGQCGSPLVSTRDGFIVGIHSASNFTNTNNYFTSVPKNFMELLTNQEAQQWVSGWRLNADSVLWGGHKVFMVKPEEPFQPVKEATQL

Variants of: B1
Assay: raw area under fraction-flipped curve 0-4 h after induction (AUC4h, not background-subtracted), DNA-recorder readout of cleavage of the substrate (dimensionless); higher = more cleavage of the substrate by the protease variant
Settings: temperature: 34 °C; time window: 0-4 h after rhamnose induction
Experimental: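 In vivo DNA recorder in E. coli TOP10(DE3) ΔrhaA at 34 °C. Each TEVp single-site mutant (parent TEVp 0) is paired with a single-site variant of the 7-mer TEVs (canonical ENLYFQ|S). The substrate sits between flexible linkers in a Bxb1-sfGFP-TEVs-SsrA fusion, so cleavage stabilises Bxb1 and speeds flipping of a recombination array, read by NGS. The value is the raw area under the fraction-flipped curve over 0-4 h after rhamnose induction (AUC4h), with ≥20 reads per time point. It is not background-subtracted; inactive controls average about 0.047.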
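Also: Bxb1 expression induced with 0.2% (w/v) L-rhamnose at OD600 near 0.5, cultures sampled hourly, flipped fraction per protease–substrate barcode pair counted by paired-end Illumina sequencing.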

| Variant | area with substrate ANLYFQS | area with substrate CNLYFQS | area with substrate FNLYFQS | area with substrate GNLYFQS | area with substrate HNLYFQS | area with substrate INLYFQS | area with substrate KNLYFQS | area with substrate LNLYFQS | area with substrate MNLYFQS | area with substrate NNLYFQS | area with substrate PNLYFQS | area with substrate SNLYFQS | area with substrate TNLYFQS | area with substrate WNLYFQS | area with substrate YNLYFQS | area with substrate DNLYFQS | area with substrate RNLYFQS | area with substrate QNLYFQS | area with substrate VNLYFQS |
| --- | --- | --- | --- | --- | --- | --- | --- | --- | --- | --- | --- | --- | --- | --- | --- | --- | --- | --- | --- |
| D11M | 0.0523 | 0.059 | 0.0671 | 0.0605 | 0.0439 | 0.0551 | 0.0666 | 0.0539 | 0.0612 | 0.0707 | 0.0682 | 0.0612 | 0.0547 | 0.059 | 0.0635 | – | – | – | – |
| I15Y | 0.0566 | – | 0.0674 | 0.0584 | 0.0575 | 0.0558 | 0.064 | 0.0549 | 0.0458 | – | 0.0516 | 0.0635 | – | 0.0568 | 0.0501 | 0.0772 | – | – | – |
| I15A | 0.0762 | 0.0614 | 0.0605 | – | – | 0.0547 | 0.0744 | 0.0558 | – | 0.0861 | 0.0696 | 0.0611 | 0.0501 | 0.057 | 0.0441 | – | 0.0472 | – | – |
| I15W | 0.064 | 0.0642 | – | 0.0744 | 0.0611 | – | 0.071 | 0.0695 | 0.068 | 0.0526 | 0.0635 | 0.0596 | 0.0529 | 0.0623 | 0.0596 | – | 0.0396 | 0.074 | – |
| S17K | 0.057 | – | 0.068 | 0.084 | 0.065 | – | 0.0656 | 0.0609 | 0.0768 | 0.0583 | 0.0799 | 0.0694 | 0.0599 | 0.0578 | 0.0681 | 0.106 | – | 0.0827 | 0.0742 |
| S17R | 0.0577 | 0.0664 | – | 0.0636 | 0.0682 | 0.0554 | 0.0465 | 0.0553 | – | 0.0692 | 0.0649 | – | 0.0658 | 0.0466 | 0.0887 | – | – | – | – |
| S17M | 0.0506 | 0.0731 | 0.0523 | 0.0642 | 0.0743 | 0.0879 | 0.0701 | 0.0618 | 0.0614 | – | 0.0646 | 0.06 | 0.0541 | 0.0589 | 0.0634 | – | 0.0665 | 0.0794 | 0.0662 |
| S17L | 0.102 | 0.101 | 0.0651 | 0.0768 | 0.0807 | 0.0675 | 0.0747 | 0.0586 | 0.064 | 0.0569 | 0.0696 | 0.0664 | 0.0656 | 0.06 | 0.0601 | – | – | 0.0686 | 0.0702 |
| S17H | 0.0851 | 0.0819 | 0.0677 | 0.0574 | 0.0596 | 0.0819 | 0.075 | 0.0654 | 0.0845 | 0.0663 | 0.0467 | 0.0677 | 0.0831 | 0.0607 | 0.0618 | – | – | 0.0593 | 0.0874 |
| S17V | 0.0622 | 0.0793 | 0.0607 | 0.0619 | 0.0586 | 0.0726 | 0.0732 | 0.0578 | 0.0565 | 0.0748 | 0.0678 | 0.0653 | 0.0664 | 0.0555 | 0.0659 | – | – | 0.0711 | – |
| S17N | 0.0626 | 0.0492 | – | 0.0709 | 0.0491 | 0.0692 | 0.0642 | – | 0.086 | 0.0675 | 0.0325 | – | 0.0781 | 0.0587 | 0.0519 | – | 0.065 | 0.101 | 0.0718 |
| S17E | 0.0874 | 0.0662 | 0.0505 | 0.0569 | 0.0591 | 0.0667 | 0.0664 | 0.0566 | – | 0.0691 | 0.0608 | 0.0633 | 0.0556 | 0.055 | 0.0659 | – | 0.0619 | 0.0519 | 0.0645 |
| G28E | 0.0295 | 0.0639 | 0.0497 | – | 0.0703 | – | 0.0694 | – | – | – | 0.0522 | – | 0.0736 | 0.057 | – | – | – | – | – |
| G28N | 0.0668 | 0.0613 | – | 0.0533 | 0.058 | – | 0.0673 | – | 0.0477 | 0.0601 | 0.0675 | 0.0668 | 0.132 | 0.0573 | – | – | – | 0.0425 | – |
| G28A | 0.0603 | – | 0.0749 | 0.0765 | 0.0602 | 0.0569 | 0.0627 | 0.0582 | 0.0625 | 0.0258 | 0.064 | – | 0.0709 | 0.0575 | 0.0593 | 0.0635 | – | – | – |
| G28R | 0.0719 | 0.0594 | – | – | 0.0517 | 0.0471 | 0.0651 | 0.0703 | 0.0635 | – | 0.0638 | 0.0626 | 0.0638 | 0.0567 | 0.0649 | – | – | – | – |
| G28P | 0.0597 | – | 0.0596 | 0.0669 | 0.0509 | 0.0596 | – | 0.0582 | 0.0503 | – | – | – | 0.0605 | 0.0669 | – | 0.0678 | – | 0.0593 | 0.0752 |
| P9W | 0.0631 | 0.0641 | 0.073 | 0.0615 | 0.0656 | 0.0673 | 0.0665 | – | 0.0741 | – | – | 0.0898 | 0.0713 | 0.0653 | – | – | 0.0897 | – | 0.0647 |
| P9V | 0.0725 | – | – | 0.0508 | 0.0633 | – | – | 0.0628 | 0.069 | – | 0.0637 | 0.0735 | – | 0.0611 | 0.0741 | 0.0668 | – | – | – |
| P9G | 0.061 | 0.0715 | 0.057 | 0.0667 | 0.0522 | 0.0635 | 0.0567 | 0.0649 | 0.0609 | 0.0648 | 0.0689 | 0.0824 | 0.0707 | 0.0607 | – | – | 0.0835 | – | – |
| P9M | 0.0647 | 0.0783 | – | 0.0697 | 0.0705 | – | 0.0808 | 0.0513 | 0.0661 | 0.0749 | 0.0713 | 0.0699 | 0.0712 | 0.0438 | 0.0497 | – | 0.0723 | – | – |
| E25T | 0.0641 | 0.0801 | – | – | 0.0554 | 0.0674 | 0.0694 | – | – | – | 0.0738 | – | – | 0.0573 | 0.0556 | – | – | – | – |
| E25Q | 0.0742 | 0.0589 | 0.0583 | 0.073 | 0.064 | – | – | 0.0607 | – | – | 0.0682 | – | 0.0579 | 0.0624 | – | – | – | – | – |
| S16W | 0.0588 | – | 0.0684 | 0.0597 | 0.0706 | 0.0392 | – | 0.064 | 0.0694 | 0.075 | 0.0695 | 0.0464 | 0.0594 | 0.0584 | – | – | – | 0.0791 | 0.0891 |
| S18L | 0.0652 | 0.0665 | 0.0695 | 0.0557 | 0.0584 | – | – | 0.0623 | – | 0.0573 | 0.0683 | 0.0516 | 0.0645 | 0.0543 | 0.0552 | – | – | – | 0.0502 |
| S18I | 0.0529 | 0.0649 | 0.069 | 0.081 | – | 0.0524 | – | 0.0611 | 0.0533 | 0.0744 | – | – | 0.0574 | 0.0609 | – | – | 0.0431 | – | – |
